Test results as given in PubChem BioAssay (Tox21).
Several values for one entry are separate records, joined by “and”; a condition that tells them apart may be missing. Identical values can stand only once. Inconclusive means that the source gave no clear call. Such entries were picked first, then a sample of the others. Potencies of inconclusive entries are doubtful fits and often do not repeat. Some structures have more than one record in an assay (separate samples or runs), and their calls can disagree. Activity calls are given as the source filed them. Unless noted, the call rests on the fitted dose curve; in most records, active means well fitted curve in the direction sought with a large enough effect in the repeat runs; inconclusive means weak or mixed curves; inactive means no such curve, though single readings can be large; an effect the other way counts as inactive or inconclusive.

Key:
[1] = qHTS assay to identify small molecule agonists of H2AX (AID 1224845; active means well fitted activation curve with a large enough effect in the signal ratio in the repeat runs, not every such curve was filed as active; inconclusive means weak or mixed curves; the % refers to the signal ratio; on activation (H2AX phosphorylation): on the % scale 0 is the no-effect control and ±100 the full control effect); settings: CHO-K1 phospho-H2AX Ser139 HTRF, 3 h; activation (H2AX phosphorylation): at 154 µM (top of the series) unless noted
Method in brief: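 Wild-type CHO-K1 cells plated overnight, then exposed 3 hr at 37C to compounds at 15 concentrations (0.76% DMSO). Lysed, then HTRF anti-pH2AX(S139)-cryptate/anti-H2AX-d2 detection after 24 hr at room temperature; emissions 665 and 620 nm.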

[2] = qHTS assay to identify small molecule agonists of H2AX - cell viability counter screen (AID 1224847; calls by dose curve; further: nearly all actives have a fitted effect of over 30% in size)
Method in brief: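 CHO-K1 cells plated overnight at 37C, then exposed 3 h at 37C to compounds at 15 concentrations (0.76% DMSO final). Viability by CellTiter-Glo luminescence after 30 min at room temperature.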

[3] = qHTS RealTime-Glo MT Cell Viability Assay in HepG2 cells - 24 hour (AID 1224867); further: nearly all actives have a fitted effect of over 50% in size
Method in brief: (§1)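 Cell number in HepG2 cultures estimated from NanoLuc luminescence generated by metabolic reduction of a prosubstrate by living cells. The homogeneous, nonlytic format allowed repeated reads at 0, 8, 16, 24, 32 and 40 h of compound exposure.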

[4] = qHTS RealTime-Glo MT Cell Viability Assay in HepG2 cells - 40 hour (AID 1224870); further: nearly all actives have a fitted effect of over 50% in size
Method in brief: (§2)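 HepG2 cells mixed with RealTime-Glo MT reagents (NanoLuc plus cell-permeant prosubstrate) were seeded at 600 cells/well, incubated 5 h at 37 C/5% CO2, then pinned with compounds in DMSO; nonlytic luminescence tracked viability during 40 h treatment.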

[5] = qHTS RealTime-Glo MT Cell Viability Assay in HEK293 cells - 16 hour (AID 1224872); further: nearly all actives have a fitted effect of over 50% in size
Method in brief: (§3)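 Homogeneous bioluminescent viability format in HEK293 cells (600 cells/well). Following 5 h at 37 C/5% CO2, 23 nL compound was pintooled; the signal was measured repeatedly during 40 h incubation.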

[6] = qHTS RealTime-Glo MT Cell Viability Assay in HepG2 cells - 8 hour (AID 1224873); further: nearly all actives have a fitted effect of over 55% in size
Method in brief: as §2

[7] = qHTS RealTime-Glo MT Cell Viability Assay in HEK293 cells - 40 hour (AID 1224874); settings: RealTime-Glo luminescence; max response: stronger effect = lower value; further: nearly all actives have a fitted effect of over 50% in size; on max response: on the % scale 0 is the no-effect control and ±100 the full control effect
Method in brief: (§4)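 Nonlytic bioluminescent viability monitoring. HEK293 at 600 cells/well with reagent; 5 h settle; compound transfer by pintool; plates held at 37 C and read at set time points.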

[8] = A CellTox Green Cytotoxicity Assay to monitor cytotoxicity in HepG2 cells - 16 hour (AID 1224876); further: nearly all actives have a fitted effect of over 45% in size
Method in brief: (§5)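 Real-time, homogeneous cytotoxicity readout: dead-cell DNA staining by CellTox Green in HepG2 monolayers, fluorescence measured at timed intervals up to 40 h of continuous compound exposure.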

[9] = A CellTox Green Cytotoxicity Assay to monitor cytotoxicity in HepG2 cells - 24 hour (AID 1224878); further: nearly all actives have a fitted effect of over 45% in size
Method in brief: as §5

[10] = A CellTox Green Cytotoxicity Assay to monitor cytotoxicity in HEK293 cells - 32 hour (AID 1224881); further: nearly all actives have a fitted effect of over 40% in size
Method in brief: (§6)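 Cytotoxicity was tracked continuously in HEK293 cells by a DNA-binding dye excluded from viable cells. Compounds were transferred in DMSO 5 h after seeding; fluorescence was recorded at intervals up to 40 h.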

[11] = A CellTox Green Cytotoxicity Assay to monitor cytotoxicity in HEK293 cells - 40 hour (AID 1224871); further: nearly all actives have a fitted effect of over 45% in size
Method in brief: as §6

[12] = A CellTox Green Cytotoxicity Assay to monitor cytotoxicity in HEK293 cells - 24 hour (AID 1224875); further: nearly all actives have a fitted effect of over 45% in size
Method in brief: as §6

[13] = A CellTox Green Cytotoxicity Assay to monitor cytotoxicity in HepG2 cells - 40 hour (AID 1224879); further: nearly all actives have a fitted effect of over 40% in size
Method in brief: as §5

[14] = qHTS RealTime-Glo MT Cell Viability Assay in HEK293 cells - 0 hour (AID 1224880); further: nearly all actives have a fitted effect of over 45% in size
Method in brief: as §4

[15] = qHTS RealTime-Glo MT Cell Viability Assay in HEK293 cells - 32 hour (AID 1224868); further: nearly all actives have a fitted effect of over 50% in size
Method in brief: as §3

[16] = qHTS RealTime-Glo MT Cell Viability Assay in HepG2 cells - 32 hour (AID 1224877); further: nearly all actives have a fitted effect of over 55% in size
Method in brief: as §1

[17] = qHTS assay to identify small molecule antagonists of the estrogen related receptor (ERR) signaling pathway from Tox21 library (AID 1224848); further: nearly all actives have a fitted effect of over 50% in size
Method in brief: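 Cells: ERR line, 2,000/well; 6 h preincubation 37 C/5% CO2. Cpd in DMSO via pin tool; 18 h, 37 C. ONE-Glo, 30 min RT, luminescence.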
Potency means the concentration at half of the fitted maximal effect; tags describe the fitted curve by direction and shape or compound fluorescence and quenching.

Clc1ccc(C(Cn2ccnc2)OCc2ccsc2Cl)c(Cl)c1 (stereo unspecified)
Potency [1]: inconclusive: 27.7 µM [rising, partial curve]
Potency [2]: inconclusive: 55.2 µM [cytotoxic, single point]
Potency [3]: inconclusive: 23.9 µM [falling, single point]
Potency [4]: inconclusive: 23.9 µM [falling, partial curve, poor fit]
Potency [5]: active: 15.1 µM
Potency [6]: inconclusive: 23.9 µM [falling, partial curve, poor fit]
Potency [7]: active: 16.9 µM
Potency [8]: inconclusive: 26.8 µM [activator, single point]
Potency [9]: active: 21.3 µM
Potency [10]: inconclusive: 26.8 µM [activator, single point]

CCCCC(CC)COC(=O)c1ccc(O)cc1 (stereo unspecified)
Potency [1]: inconclusive: 126 µM [activator, single point]
Potency [2]: active: 89.4 µM and active: 80 µM
Potency [11]: active: 43.5 µM and active: 21.9 µM
Potency [5]: active: 54.7 µM and inconclusive: 34.7 µM [cytotoxic, partial curve]
Potency [7]: inconclusive: 24.5 µM [cytotoxic, partial curve]
Potency [12]: active: 43.5 µM and active: 21.9 µM
Potency [8]: active: 30.9 µM
Potency [9]: inconclusive: 54.7 µM [activator, single point]
Potency [13]: inconclusive: 54.7 µM [activator, single point]
Potency [14]: inconclusive: 61.7 µM [falling, partial curve, poor fit]

O=C(Nc1ccccc1SSc1ccccc1NC(=O)c1ccccc1)c1ccccc1
Potency [1]: active: 18 µM
Potency [2]: inconclusive: 127 µM [cytotoxic, single point] and inconclusive: 113 µM [cytotoxic, single point]
Potency [3]: active: 49 µM
Potency [15]: inconclusive: 62 µM [cytotoxic, single point] and inconclusive: 61.6 µM [cytotoxic, single point]
Potency [11]: inconclusive: 62 µM [activator, single point] and inconclusive: 27.5 µM [activator, partial curve, poor fit]
Potency [5]: inconclusive: 62 µM [cytotoxic, single point] and inconclusive: 61.6 µM [cytotoxic, single point]
Potency [6]: inconclusive: 43.6 µM [falling, partial curve]
Potency [7]: inconclusive: 62 µM [cytotoxic, single point] and inconclusive: 61.6 µM [cytotoxic, single point]
Potency [12]: inconclusive: 4.92 µM [activator, partial curve, poor fit]
Potency [8]: inconclusive: 54.9 µM [activator, single point]
Potency [13]: inconclusive: 55.2 µM [activator, single point]
Potency [14]: inactive
Potency [10]: inconclusive: 62 µM [activator, single point] and inconclusive: 12.3 µM [activator, single point]

CCCCCC(=O)O[C@]1(C(C)=O)CC[C@H]2[C@@H]3CCC4=CC(=O)CC[C@]4(C)[C@H]3CC[C@@]21C
Potency [1]: inconclusive: 126 µM [activator]
Potency [2]: active: 31.6 µM and inconclusive: 43.8 µM [cytotoxic, partial curve]
Potency [3]: inconclusive: 21.7 µM [falling, partial curve]
Potency [15]: inconclusive: 19 µM [cytotoxic, partial curve]
Potency [4]: inconclusive: 24.4 µM [falling, partial curve]
Potency [5]: inconclusive: 24.4 µM [cytotoxic, partial curve] and inconclusive: 23.9 µM [cytotoxic, single point]
Potency [7]: inconclusive: 21.3 µM [cytotoxic, single point]
Potency [12]: inconclusive: 61.2 µM [activator, single point]
Potency [16]: inconclusive: 19.4 µM [cytotoxic, partial curve]
Potency [13]: inconclusive: 54.6 µM [activator, single point]
Potency [10]: inconclusive: 54.6 µM [activator, single point]

CN1CCN(CCCN2c3ccccc3Sc3ccc(Cl)cc32)CC1
Potency [1]: inconclusive: 61.9 µM [activator, single point]
Potency [2]: inconclusive: 55.2 µM [cytotoxic, single point]
Potency [5]: inconclusive: 26.8 µM [cytotoxic, single point]
Potency [7]: inconclusive: 23.9 µM [cytotoxic, partial curve, poor fit]
Potency [12]: inconclusive: 26.8 µM [activator, single point]
Potency [8]: active: 23.9 µM
Potency [16]: active: 23.9 µM
Potency [13]: active: 23.9 µM
Potency [14]: inconclusive: 23.9 µM [rising, single point]
Potency [10]: inconclusive: 26.8 µM [activator, single point]

CN(C)CCCN1c2ccccc2CCc2ccc(Cl)cc21
Potency [1]: inconclusive: 113 µM [activator, single point] and inconclusive: 61.9 µM [activator, single point]
Potency [2]: active: 113 µM and inconclusive: 55.2 µM [cytotoxic, single point]
Potency [17]: inconclusive: 26.6 µM [inhibitor, partial curve]
Potency [11]: active: 49 µM and active: 26.8 µM
Potency [5]: inconclusive: 21.3 µM [cytotoxic, partial curve]
Potency [8]: active: 54.9 µM and active: 21.3 µM
Potency [9]: active: 38.9 µM and active: 23.9 µM
Potency [13]: active: 34.7 µM and active: 23.9 µM
Potency [14]: inconclusive: 27.5 µM [rising, partial curve] and inconclusive: 23.9 µM [rising, partial curve]

CC(C)(c1cc(Br)c(O)c(Br)c1)c1cc(Br)c(O)c(Br)c1
Potency [1]: active: 113 µM
Potency [2]: inconclusive: 126 µM [cytotoxic, single point] and inconclusive: 120 µM [cytotoxic, single point]
Potency [17]: inconclusive: 68.3 µM [inhibitor, single point]
Potency [11]: inactive and inconclusive: 54.8 µM [activator, single point]
Potency [7]: inconclusive: 48.8 µM [cytotoxic, partial curve, poor fit] and inconclusive: 54.8 µM [cytotoxic, single point]
max response [7]: inactive: -17.7%
Potency [8]: inconclusive: 52 µM [activator, single point]
Potency [9]: inconclusive: 61.5 µM [activator, single point] and inconclusive: 52 µM [activator, single point]
Potency [13]: inconclusive: 54.8 µM [activator, single point] and inconclusive: 52 µM [activator, single point]
Potency [10]: inconclusive: 54.8 µM [activator, partial curve, poor fit]

CSc1ccc2c(c1)C(N1CCN(C)CC1)Cc1ccccc1S2 (stereo unspecified)
Potency [1]: inconclusive: 49.2 µM [activator, single point]
Potency [2]: inconclusive: 55.2 µM [cytotoxic, single point]
Potency [15]: inconclusive: 26.8 µM [cytotoxic, single point]
Potency [11]: inconclusive: 26.8 µM [activator, single point]
Potency [7]: inconclusive: 26.8 µM [cytotoxic, single point]
Potency [12]: inconclusive: 26.8 µM [activator, single point]
Potency [8]: active: 26.8 µM
Potency [14]: inconclusive: 8.49 µM [rising, full curve]
Potency [10]: inconclusive: 26.8 µM [activator, single point]

CCCCOCCOCCOCc1cc2c(cc1CCC)OCO2
activation (H2AX phosphorylation) [1]: inconclusive: -1.39%
Potency [2]: inconclusive: 1.81 µM [cytotoxic, single point]
Potency [11]: inconclusive: 6.24 µM [activator, partial curve]
Potency [5]: inconclusive: 8.81 µM [cytotoxic, full curve]
Potency [7]: inconclusive: 12.4 µM [cytotoxic, full curve]
Potency [8]: inconclusive: 22.1 µM [activator, single point]
Potency [10]: inconclusive: 5.56 µM [activator, partial curve]

CSc1ccc2c(c1)N(CCC1CCCCN1C)c1ccccc1S2 (stereo unspecified)
Potency [1]: inconclusive: 50.3 µM [activator, single point] and inconclusive: 55.2 µM [activator, single point]
Potency [2]: active: 50.3 µM and active: 55.2 µM
Potency [17]: inconclusive: 33.5 µM [inhibitor]
Potency [15]: inconclusive: 26.8 µM [cytotoxic, single point]
Potency [11]: inconclusive: 26.8 µM [activator, single point]
Potency [5]: active: 17.3 µM and inconclusive: 26.8 µM [cytotoxic, single point]
Potency [7]: inconclusive: 26.8 µM [cytotoxic, single point]
Potency [12]: active: 24.4 µM and inconclusive: 26.8 µM [activator, single point]
Potency [8]: active: 54.7 µM and active: 26.8 µM
Potency [9]: active: 38.7 µM and active: 23.9 µM
Potency [14]: inconclusive: 43.5 µM [rising, partial curve] and inconclusive: 19 µM [rising, partial curve]
Potency [10]: inconclusive: 26.8 µM [activator, single point]
